Read counts are not given, so values of variants with three or more changes are uncertain.
B1: CPEB3 Ribozyme (parent)
chain: UAACAGGGGGCCACAGCAGAAGCGUUCACGUCGCAGCCCCUGUCAGAUUCUGGUGAAUCUGCGAAUUCUGCUGUAUAUCUC

Variants of: B1
Experiment: self-cleavage, relative activity (ratio to wild type); higher = more cleavage; in vitro, sequencing
How it was run: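 CPEB3 self-cleaving ribozyme mutant libraries were made by rounds of error-prone PCR, barcoded, and transcribed in vitro with T7 RNA polymerase for 5 hours at 37°C. Cleavage occurred during transcription and a 15 min DNase I step before EDTA stop. RNAs were reverse transcribed with template switching and Illumina-sequenced, with DNA sequencing mapping barcodes to variants. Relative activity is the variant's cleaved/total read fraction divided by wild type's (minimum 5 reads), averaged across three batches.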

Variant	self-cleavage
G6A U25A U69G	0.06
G6A U25C A28C	0.1
G6A U25C A35G	0.3
G6A U25C A35U U54C	0.05
G6A U25C C37U C40G U80A	0.05
G6A U25C G33A A35G A56G A75U	0.28
G6A U25C U26A G30C C37U A56U	0.07
G6A U25C U26C A47G A57G U58A A77G	0.06
G6A U25C U31A A47G C50A U60C	0.05
G6A U25C U41A C44U G61A U67C	0.05
G6A U25C U60C C62A A65G	0.19
G6A U25G C38A U72A	0.15
G6A U25G G52U U78A	0.05
G6A U26A U31C U60C U72C	0.06
G6A U26A U54A	0.08
G6A U26C A35G C37U U48C U54C U72A	0.05
G6A U26C C39U	0.28
G6A U26C G42A A56G U60A	0.06
G6A U26C G61A U67C	0.11
G6A U26C U31C U43C U49C U51A U72C	0.08
G6A U26C U43C A47U G53U U54C A57G	0.13
G6A U26C U43C A47U G53U U54C U80A	0.19
G6A U26C U43C A75G U78C	0.08
G6A U26C U74A U78C	0.05

Variant	self-cleavage
G6A U26C U78C	0.51
G6A U26G U51A	0.19
G6A U26G U60A U67C G70A	0.17
G6A U31A A57G U69A	0.1
G6A U31A C62A U80C	0.06
G6A U31A U41A	0.2
G6A U31C U43A A57G A64G U66C	0.07
G6A U31C U43C C50A U69A	0.04
G6A U41A A45G A47G U72C U80C	0.05
G6A U41A A45G U72A	0.07
G6A U41A A64G	0.08
G6A U41A A77G	0.41
G6A U41A U43C A45G A56G A57G U69A	0.06
G6A U41A U60C	0.08
G6A U41A U80C	0.09
G6A U41C A45G	0.22
G6A U41C A45G U48A	0.31
G6A U41C A47G	0.35
G6A U41C G53U U67A U74C	0.22
G6A U41C U49C U78C U80C	0.09
G6A U41C U60C A64G U69C	0.04
G6A U41C U66A	0.14
G6A U41C U66C U67C	0.18
G6A U43A A65G U78C	0.04

Variant	self-cleavage
G6A U43A G52U A56G U67A U76A	0.24
G6A U43A U48C	0.39
G6A U43A U67A	0.05
G6A U43A U69A U80A	0.08
G6A U43C G53A A75G	0.16
G6A U48C U60C	0.19
G6A U48C U72C	0.16
G6A U48C U76C	0.48
G6A U49A U72A A77U U80C	0
G6A U49C U60C	0.18
G6A U51C G52U A64G A77G	0.09
G6A U54C A65G	0.11
G6A U54C C59G U72G	0.05
G6A U54C G70A	0.16
G6A U54C U58C	0.05
G6A U54C U74G A75U	0.5
G6A U54G G63C	0.3
G6A U58A U72A	0.13
G6A U60A U69C	0.08
G6A U66C U67A	0.2
G6A U67A A75U	0.18
G6A U69A U78C	0.14
G6A U69A U80C	0.08
G6A U69C A77G	0.19

Variant	self-cleavage
G6A U74C U76A	0.66
G6C A13G C32A U67C	0.24
G6C A13G U25A U41C U66C	0.27
G6C A13G U31C C38A U48C	0.45
G6C A13U U72C	0.53
G6C A15C C40U U54C	0.07
G6C A15G U51C U72C	0.13
G6C A18G U31C U41C A65G U72A U80A	0.04
G6C A20G U25C C29U U60C	0.05
G6C A20U A21G U41A U43C A47G A57G	0.03
G6C A21U U26C C32U U41C U72C	0.04
G6C A28G A56U A57G U72C	0.13
G6C A28G U41C U58C U67C	0.07
G6C A35U U43C U58C U60A	0.05
G6C A45G U60A A64U	0.11
G6C C12U U43C A75U	0.25
G6C C23U U67C	0.12
G6C G9C G36U C40U U66C	0.12
G6C G9U A18G C40U U49G U66C U78A	0.04
G6C G10U U25C A35U U49A	0.05
G6C G22A G52A A64U	0.17
G6C G24A U49C U67C	0.06
G6C G30A A45U G73U	0.31
G6C G30A A45U U66C C79A	0.21

Variant	self-cleavage
G6C G30A U67C U74A	0.15
G6C G53C U60C	0.07
G6C U25C C32U U54C	0.23
G6C U25C U60C	0.35
G6C U25C U69C U80C	0.09
G6C U26C A57U	0.33
G6C U31C C32A A35G	0.31
G6C U43C A56G A64G U69A	0.31
G6C U49C U51C U60C U72C	0.08
G6C U51C U69G	0.1
G6C U66C U69C U72C	0.06
G6C U72G G73C U80C	0.25
G6U A13G A20G U31A U51A U72A	0.04
G6U A13G A35G	0.37
G6U A13G A47G U51C	0.06
G6U A13G C32U U49C G63A U67C U72A	0.05
G6U A13G U51C U72A	0.14
G6U A13G U60A	0.38
G6U A13G U80C	0.47
G6U A13U A18G A20G U25C U43C	0.05
G6U A15C A21G C27A G33U	0.12
G6U A15G A18G U72C	0.12
G6U A15G C17G C29U U69C	0.05
G6U A15G C39U U69C	0.1

Variant	self-cleavage
G6U A15G U31C A65G U69G U78C	0.06
G6U A15G U41C U69A U80C	0.14
G6U A15U A21G A35G C40U U49C A65C	0.06
G6U A15U C29U A45G U58A A75G	0.04
G6U A15U G24A U80C	0.39
G6U A15U U54A	0.42
G6U A18U A35C U54C U58C	0.08
G6U A18U U54C U60A	0.2
G6U A20C C23A A64U U80C	0.06
G6U A20G U51C	0.1
G6U A20G U58C	0.32
G6U A20U A28G U54C	0.29
G6U A20U U67C	0.12
G6U A21G C23U U26C	0.07
G6U A21G U25C C32G U41C U54C U76C	0.22
G6U A21U A35U	0.33
G6U A21U A47U U48C U76A A77G	0.23
G6U A21U U60C	0.07
G6U A28C U51C A56G U78C	0.07
G6U A28G C79A	0.09
G6U A28G G36C U67C U78C	0.04
G6U A28G U31A A45G A56C U69C G73A	0.04
G6U A28G U41C G46A U58C A64G	0.07
G6U A28U A35G U43C	0.13

Variant	self-cleavage
G6U A28U G30U A35G U41C G70C U74A	0.04
G6U A35G A57G	0.3
G6U A35G U60G A77G	0.11
G6U A35G U72C	0.39
G6U A35G U80C	0.53
G6U A35U A47G	0.1
G6U A35U A64G	0.16
G6U A45G U72C	0.1
G6U A45U U66C C79A	0.26
G6U A47G U49C A56U A57G	0.05
G6U A47G U49C A64U	0.12
G6U A64U U78A U80A	0.09
G6U A65G U69A	0.39
G6U C11A A18U U25G	0.05
G6U C11A A28C C32A A47U U69G	0.06
G6U C11G C40U U43C U49G A64G	0.28
G6U C11G U26A	0.96
G6U C11U A21G C27A G30C U74C	0.04
G6U C12A A13G A15G C32A U80G	0.05
G6U C12A U43C A56G A65G	0.21
G6U C12G U41G G52A U76A	0.09
G6U C14A A18G U41A A45G U51C	0.05
G6U C17G A28G U72C A77G	0.06

— the RNAGym collection of RNA variant scans (doi:10.1093/nar/gkz1192)
